Among all 46,000 compounds or so, about 60 (0.1%) were called active. About 3% were inconclusive and are not listed. The call rests on the fitted dose curve; in most records, active means well fitted inhibition curve with a large enough effect; inconclusive means small, poorly fitted or top-dose-only effect; inactive means no such curve, though single readings can be large or run the other way. The list shows a part of the results.
Experiment: Primary qHTS assay for Inhibitors of ovarian cancer metastasis using an organotypic tumor microenvironment (TME) model. Further: nearly all actives have a fitted effect of over 65% in size.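 On activity change, negative = inhibition: plate controls were DMSO wells for no effect and tomatine positive control wells for full effect.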
Settings: SKOV3ip1-GFP adhesion/invasion on 3D omental model, fluorescence; series mostly up to 45.8 µM; activity change, negative = inhibition: at the top concentration
Method in brief: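 A 3D layer of primary human omental fibroblasts, mesothelial cells, fibronectin and collagen I, grown 48 hr, received SKOV3ip1-GFP cells in serum-free medium plus compounds at 0.36-46 umol/L. After 2 hr RT and 16 hr 37 C, fixed adherent GFP cells were counted; normalized to DMSO and tomatine.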

| Compound | activity change, negative = inhibition | outcome |
| --- | --- | --- |
| CC(=O)c1cccc(NC(=O)CCS(=O)(=O)c2ccc3c(c2)n(C)c(=O)c(=O)n3C)c1 | inactive: -4.12% | – |
| NC(=O)CSc1nc2cc3c(cc2c(=O)n1CCCCCC(=O)NCc1ccc2c(c1)OCO2)OCO3 | inactive: 3.02% | – |
| COc1ccc(OC)c(NC(=O)CSc2c3c(nc4cc(Cl)ccc24)CCCC3)c1 | inactive: -3.78% | – |
| CN(C1CCCCC1)S(=O)(=O)c1ccc2c(c1)c(=O)c(C(=O)N1CCN(c3ccc(F)cc3)CC1)cn2C | inactive: -9.71% | – |
| CCOCCCNC(=O)C(NC(=O)C1CCC(C)CC1)C(C)C (stereo not given) | inactive: 4.71% | – |
| Cc1ccc(C(=O)c2cn(Cc3cc(C)ccc3C)c3nc(C)ccc3c2=O)cc1 | inactive: 54.1% | – |
| CCCCCCNC(=O)CCc1c(C)nc2nc(-c3cc(OC)cc(OC)c3)nn2c1C | inactive: 8.56% | – |
| Cc1c(Cl)cccc1NC(=O)Nc1nnc(N(C)C2CCCCC2)s1 | inactive: -0.528% | – |
| Cc1ccc(CCNC(=O)c2cnc3c(C)cccn3c2=O)cc1 | inactive: -5.32% | – |
| CCOC(=O)N1CCN(Cc2nc3cc(NC(=O)c4ccc(F)cc4)ccc3n2C(C)C)CC1 | inactive: -7.1% | – |
| COc1ccc(-c2cn3c(n2)sc2cc(C(=O)NCC(C)c4ccccc4)ccc23)cc1 (stereo not given) | inactive: -1.05% | – |
| CC(=O)Nc1ccc(NC(=O)C(NC(=O)C2CCC(C)CC2)C(C)C)cc1 (stereo not given) | inactive: 5.11% | – |
| CCc1ccccc1NC(=O)c1nn(-c2ccc(C)cc2)c(=O)c2c1c1ccccc1n2C | inactive: -0.308% | – |
| CCS(=O)(=O)n1nc(-c2ccco2)nc1NCc1ccc(C(C)C)cc1 | inactive: 12.7% | – |
| CC(C)c1cc(C(=O)NCc2ccc(F)cc2)no1 | inactive: 3.12% | – |
| O=C(Nc1ccc(F)cc1)c1ccc(CN2CC(=O)N3CCCCC3C2=O)cc1 (stereo not given) | – | inactive |
| CCc1ccc(Cn2nnc3c(=O)[nH]c(C4CCCN(C(=O)c5cccc(Cl)c5)C4)nc32)cc1 (stereo not given) | inactive: -2.23% | – |
| Cc1ccc(-n2cnc3cc(C(=O)NC4CCCCCC4)ccc32)c(C)c1 | inactive: -1.84% | – |
| CN(C)CCOc1ccc(C(=C(CCCl)c2ccccc2)c2ccccc2)cc1 | inactive: 5.13% | – |
| COc1ccc(C)cc1NC(=O)C1CCC(CNS(=O)(=O)c2ccc3c(c2)CCCC(=O)N3)CC1 (stereo not given) | inactive: 16% | – |

| Compound | activity change, negative = inhibition | outcome |
| --- | --- | --- |
| COc1cc(CN(C(=O)c2ccccc2Br)c2ccccn2)cc(OC)c1OC | inactive: -0.359% | – |
| COc1ccc(S(=O)(=O)NCCc2sc(-c3cccnc3)nc2C)cc1OC | inactive: -5.68% | – |
| CC(C)c1ccc(OCC(=O)Nc2cc(-c3ccccc3)no2)cc1 | inactive: 0.42% | – |
| CC(=O)c1c(C)n(S(=O)(=O)c2ccc(Cl)cc2)c2ccc(NS(=O)(=O)c3ccc(Cl)cc3)cc12 | inactive: -3.71% | – |
| Cc1cc(C)cc(NC(=O)Cn2nc(N3CCN(c4ccccc4)CC3)ccc2=O)c1 | – | inactive |
| CCN(CC)C(=O)c1sc2c(c1C)c(=O)n(CCc1ccccc1)c(=O)n2Cc1ccc(C)cc1 | inactive: 35.7% | – |
| CCOc1cc2c(cc1OCC)C(CC(=O)OC)N(C(=O)Nc1cc(OC)ccc1OC)CC2 (stereo not given) | inactive: -4.55% | – |
| COc1ccc2c(c1)c(=O)c(S(=O)(=O)c1ccc(Cl)cc1)cn2Cc1cc(C)ccc1C | inactive: 7.37% | – |
| Cc1ccc(C)c(N2CCN(C(=O)CCS(=O)(=O)c3ccc4c(c3)oc(=O)n4C)CC2)c1 | inactive: 4.19% | – |
| Cc1ccc(NC(=O)CN2C(=O)C(c3ccc(C)cc3)=NC23CCCCCC3)cc1 | inactive: -6.39% | – |
| CCc1ccc(NC(=O)c2cccc(N3CCCS3(=O)=O)c2)cc1 | inactive: 3.95% | – |
| CCN1CCSc2ccc(C(=O)NCc3ccc(F)cc3)cc21 | inactive: -11.6% | – |
| CCCCNC(=O)c1cc(-c2cccnc2)nc2ccc(S(=O)(=O)NCCCC)cc12 | inactive: -3.19% | – |
| COc1ccc(CNC(=O)Cn2ncc3c(=O)oc4ccccc4c32)c(OC)c1 | – | inactive |
| COc1ccc(NCc2cccn2-c2nnc(N3CCOCC3)s2)cc1OC | inactive: -9.2% | – |
| Cc1ccc(CNC(=O)CCSCc2cnn(-c3ccccc3)c2-n2cccc2)cc1 | inactive: 1.03% | – |
| COCCCNC(=O)c1nn(C)c2c1CS(=O)(=O)c1ccccc1-2 | inactive: 0.214% | – |
| CCc1cccc(NC(=O)Cc2nc(-c3ccc(OC)cc3)no2)c1 | inactive: 8.54% | – |
| Cc1csc2nc(COC(=O)c3cccc(NC(=O)COc4ccccc4Cl)c3)cc(=O)n12 | – | inactive |
| O=C(CSc1nnc2[nH]c(=O)cc(-c3ccccc3)n12)Nc1ccc(OC(F)(F)F)cc1 | inactive: -5.21% | – |

| Compound | activity change, negative = inhibition | outcome |
| --- | --- | --- |
| COc1cc([N+](=O)[O-])ccc1NC(=O)c1nc2ccccc2n(C)c1=O | – | inactive |
| COCc1cc(C)nc2sc3c(c12)NC(c1ccccc1C(=O)O)N(c1cccc(C(F)(F)F)c1)C3=O (stereo not given) | inactive: -8.34% | – |
| COc1ccc(-c2cn3c(n2)sc2cc(C(=O)NC(C)C45CC6CC(CC(C6)C4)C5)ccc23)cc1 (stereo not given) | inactive: -3.2% | – |
| COc1ccc(CNC(=O)CC2N=C3c4ccccc4N=C(SCC(=O)Nc4ccc(C(C)C)cc4)N3C2=O)cc1 (stereo not given) | – | inactive |
| COC(=O)CCCn1c(-c2ccc(C)cc2)c(C)n2c3c(=O)n(C)c(=O)n(C)c3nc12 | – | inactive |
| Cc1ccc(S(=O)(=O)N(CC(=O)Nc2ccc(F)cc2F)Cc2ccc(F)cc2)cc1 | – | inactive |
| Cc1cc(=O)n(Cc2c(F)cccc2Cl)c2c1c(C)nn2-c1cccc(F)c1 | inactive: -1.95% | – |
| CCCSc1ncc(Cl)c(C(=O)Nc2sc(C(C)=O)c(C)c2C(=O)OCC)n1 | inactive: 13.7% | – |
| O=C(Cc1ccc(Cl)cc1)NCC(c1cccs1)S(=O)(=O)c1ccccc1 (stereo not given) | inactive: -4.59% | – |
| Cc1cccc(C(=O)Nc2c(C(=O)N3CCN(c4ccc(F)cc4)CC3)oc3ccccc23)c1 | – | inactive |
| CCOC(=O)C1CCN(S(=O)(=O)c2cc3c4c(c2)C(C)C(=O)N4CCC3)CC1 (stereo not given) | inactive: -1.43% | – |
| CCn1ccc2c(OCC(=O)Nc3ccc(C)c(Cl)c3)cccc2c1=O | inactive: 0.637% | – |
| CCN(CC)c1cc(C)c2cc(NC(=O)c3cc(OC)cc(OC)c3)ccc2n1 | inactive: 4.75% | – |
| Cc1onc(-c2ccccc2Cl)c1C(=O)Oc1ccccc1F | – | inactive |
| CC(C)(C)OC(=O)N1CCC(N2CCN(Cc3ccccc3)C(=O)C2=O)CC1 | – | inactive |
| CCOc1ccc(NC(=O)C(CC(C)C)N2Cc3ccccc3C2=O)cc1 (stereo not given) | – | inactive |
| CCOC(=O)c1ccccc1NC(=O)NCc1c(-n2cccc2)sc2c1CCCC2 | inactive: 4.22% | – |
| CCCCCCCCCCCCc1ccc(S(=O)(=O)Nc2nncs2)cc1 | inactive: -13.2% | – |
| Cc1c(CNC(C)CCc2ccccc2)c(C(=O)O)c(C)n1Cc1ccc(F)cc1 (stereo not given) | inactive: -1.77% | – |
| CN(C)S(=O)(=O)c1ccc2c(c1)N(CC(=O)Nc1cccc(C(F)(F)F)c1)C(=O)CS2 | – | inactive |
